Data taken from PMC3402478, “ADP Ribosylation by PARP-1 Suppresses HOXB7 Transcriptional Activity”.
These are yes or no findings as the source states them, for the method shown. Binding seen in cells or lysates may run through a third protein. Some entries that bind do so weakly or less than the wild type.

Chains of the proteins cited; added tags and fusions are not shown. Lines headed by an entry give the natural chain unless they say otherwise; changes in a name come on top. A line that says so, or that is headed by a name, gives the form on record, which may keep a tag or linker. Residues count along the entry.
UniProt P09629: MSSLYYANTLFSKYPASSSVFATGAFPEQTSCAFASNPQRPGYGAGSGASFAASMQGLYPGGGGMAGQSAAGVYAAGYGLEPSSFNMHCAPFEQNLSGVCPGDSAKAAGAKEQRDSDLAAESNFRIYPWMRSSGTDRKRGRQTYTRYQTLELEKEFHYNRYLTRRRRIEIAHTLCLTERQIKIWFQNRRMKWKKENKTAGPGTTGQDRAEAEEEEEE
FB7Δ1-14: residues 15-217 of P09629
FB7Δ38-79 (P09629, form named): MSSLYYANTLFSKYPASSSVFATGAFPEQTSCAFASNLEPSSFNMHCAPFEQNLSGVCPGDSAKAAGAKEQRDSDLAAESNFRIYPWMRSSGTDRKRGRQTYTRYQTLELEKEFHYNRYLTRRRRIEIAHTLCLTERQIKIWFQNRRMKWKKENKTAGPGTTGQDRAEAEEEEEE
FB7Δ81-120 (P09629, form named): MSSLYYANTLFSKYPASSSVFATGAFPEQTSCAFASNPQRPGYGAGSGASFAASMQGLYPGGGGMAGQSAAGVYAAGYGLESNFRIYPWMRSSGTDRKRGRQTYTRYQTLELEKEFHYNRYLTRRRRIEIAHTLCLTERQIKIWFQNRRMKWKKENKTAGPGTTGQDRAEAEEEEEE
UniProt P20719: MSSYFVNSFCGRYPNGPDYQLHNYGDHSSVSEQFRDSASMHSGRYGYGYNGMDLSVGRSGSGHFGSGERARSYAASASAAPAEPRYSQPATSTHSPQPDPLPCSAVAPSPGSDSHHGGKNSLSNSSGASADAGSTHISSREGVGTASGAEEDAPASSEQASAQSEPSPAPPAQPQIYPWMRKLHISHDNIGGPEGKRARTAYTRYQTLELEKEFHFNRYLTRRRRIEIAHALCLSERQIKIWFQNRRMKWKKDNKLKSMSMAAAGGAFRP
UniProt P31268: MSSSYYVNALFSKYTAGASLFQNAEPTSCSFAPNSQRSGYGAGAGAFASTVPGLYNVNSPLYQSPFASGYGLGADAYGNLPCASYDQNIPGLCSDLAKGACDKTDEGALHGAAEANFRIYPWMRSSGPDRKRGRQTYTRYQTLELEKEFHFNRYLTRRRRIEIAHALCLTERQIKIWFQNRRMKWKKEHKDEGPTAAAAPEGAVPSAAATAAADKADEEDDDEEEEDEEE
UniProt P17509: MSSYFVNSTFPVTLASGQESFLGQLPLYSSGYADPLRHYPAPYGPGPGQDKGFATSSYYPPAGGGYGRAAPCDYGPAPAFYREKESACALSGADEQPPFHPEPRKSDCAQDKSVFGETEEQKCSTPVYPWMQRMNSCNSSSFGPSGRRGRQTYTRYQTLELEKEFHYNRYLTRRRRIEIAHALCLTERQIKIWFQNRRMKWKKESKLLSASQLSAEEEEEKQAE
UniProt P09630: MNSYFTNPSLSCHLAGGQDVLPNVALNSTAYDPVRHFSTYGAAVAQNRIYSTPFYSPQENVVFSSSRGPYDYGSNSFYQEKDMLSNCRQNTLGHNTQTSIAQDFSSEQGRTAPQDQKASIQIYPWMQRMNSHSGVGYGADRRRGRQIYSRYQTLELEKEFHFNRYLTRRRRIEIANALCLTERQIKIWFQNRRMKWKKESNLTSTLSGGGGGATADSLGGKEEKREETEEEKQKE
UniProt P31273: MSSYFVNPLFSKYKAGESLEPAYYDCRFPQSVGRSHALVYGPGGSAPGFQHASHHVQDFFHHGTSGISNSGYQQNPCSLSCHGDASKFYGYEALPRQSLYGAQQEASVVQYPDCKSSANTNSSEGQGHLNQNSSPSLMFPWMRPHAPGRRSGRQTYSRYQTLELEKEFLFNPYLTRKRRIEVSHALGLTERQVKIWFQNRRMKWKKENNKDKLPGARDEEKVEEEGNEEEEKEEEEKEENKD
UniProt P09874: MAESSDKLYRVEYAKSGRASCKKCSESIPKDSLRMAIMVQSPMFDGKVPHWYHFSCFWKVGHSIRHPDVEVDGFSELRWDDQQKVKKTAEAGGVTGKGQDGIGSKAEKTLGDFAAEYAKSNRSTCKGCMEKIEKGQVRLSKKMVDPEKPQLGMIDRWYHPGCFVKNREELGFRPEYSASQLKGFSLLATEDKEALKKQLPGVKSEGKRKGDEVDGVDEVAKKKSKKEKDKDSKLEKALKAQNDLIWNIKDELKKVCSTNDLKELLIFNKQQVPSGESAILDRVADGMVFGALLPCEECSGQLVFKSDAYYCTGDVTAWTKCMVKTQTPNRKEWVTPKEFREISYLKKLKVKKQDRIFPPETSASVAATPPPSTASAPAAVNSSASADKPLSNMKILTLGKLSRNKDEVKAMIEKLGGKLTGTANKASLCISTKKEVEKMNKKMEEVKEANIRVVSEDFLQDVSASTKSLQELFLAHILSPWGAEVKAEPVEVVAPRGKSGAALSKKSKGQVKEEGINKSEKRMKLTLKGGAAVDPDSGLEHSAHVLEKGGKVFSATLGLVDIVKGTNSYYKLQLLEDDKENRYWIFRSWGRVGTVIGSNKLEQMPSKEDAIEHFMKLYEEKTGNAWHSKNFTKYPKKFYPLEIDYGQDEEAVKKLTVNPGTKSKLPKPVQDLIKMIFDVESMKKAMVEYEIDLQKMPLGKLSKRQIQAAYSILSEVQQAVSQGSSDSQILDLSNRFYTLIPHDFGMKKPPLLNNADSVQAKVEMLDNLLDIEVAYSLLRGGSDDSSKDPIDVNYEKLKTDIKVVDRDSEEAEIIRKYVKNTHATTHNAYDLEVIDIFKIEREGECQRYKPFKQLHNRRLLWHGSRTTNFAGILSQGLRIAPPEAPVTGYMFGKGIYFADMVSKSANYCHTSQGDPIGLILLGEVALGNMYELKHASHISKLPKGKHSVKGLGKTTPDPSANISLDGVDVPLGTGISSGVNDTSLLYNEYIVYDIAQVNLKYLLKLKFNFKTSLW

Columns and labels:
GST-HOXB7 fusion protein = GST-HOXB7 fusion protein (UniProt P09629); test: pull-down; GST-HOXB7 immobilized on glutathione-Sepharose, incubated with ^35S labelled PARP-1 or PARP-1 deletion proteins from in vitro TNT in NETN buffer at 4°C for 2 hours; autoradiography; only the target purified
FB7WM (W129F, M130I) = FB7WM (W129F, M130I) (UniProt P09629); test: co-IP; Flag-tagged HOXB7 or its deletion/mutant constructs transiently transfected into CHO cells together with a PARP expression construct; immunoprecipitation with FLAG antibodies, immunoblot with PARP antibodies (the methods say HEK293T, myc-tagged PARP1, anti-myc blot)
FB7Δ1-14 = FB7Δ1-14 (UniProt P09629); test: as above
FB7Δ38-79 = FB7Δ38-79 (UniProt P09629); test: as above
FB7Δ81-120 = FB7Δ81-120 (UniProt P09629); test: as above
Flag-tagged HOXA5 = Flag-tagged HOXA5 (UniProt P20719); test: co-IP; SKBR3 cells transfected with Flag-tagged HOX proteins; lysates immunoprecipitated with anti-Flag antibody, western blotted with anti-PARP-1 (endogenous PARP-1)
Flag-tagged HOXA7 = Flag-tagged HOXA7 (UniProt P31268); test: as above
Flag-tagged HOXB6 = Flag-tagged HOXB6 (UniProt P17509); test: as above
Flag-tagged HOXC6 = Flag-tagged HOXC6 (UniProt P09630); test: as above
Flag-tagged HOXC8 = Flag-tagged HOXC8 (UniProt P31273); test: as above

Substance: PARP-1 C-terminal moiety (372-1014), in vitro transcribed and translated (from UniProt P09874 372-1014) (domain or fragment)
- binding (GST-HOXB7 fusion protein): no binding

Substance: PARP-1 N-terminal part (1-372), in vitro transcribed and translated (from UniProt P09874 1-372) (domain or fragment)
- binding (GST-HOXB7 fusion protein): binds

Substance: PARP-1 N-terminal cleavage domain (1-214), in vitro transcribed and translated (from UniProt P09874 1-214) (domain or fragment)
- binding (GST-HOXB7 fusion protein): binds

Substance: PARP-1 from a PARP expression construct (PARPpCR3.1), in CHO cells (from UniProt P09874 1-1014) (enzyme)
- binding (FB7WM (W129F, M130I)): binds
- binding (FB7Δ1-14): binds
- binding (FB7Δ38-79): binds
- binding (FB7Δ81-120): binds

Substance: poly (ADP-ribose) polymerase-1 (PARP-1), endogenous in SKBR3 cells (from UniProt P09874 1-1014) (enzyme)
- binding (Flag-tagged HOXA5): binds
- binding (Flag-tagged HOXA7): binds
- binding (Flag-tagged HOXB6): binds
- binding (Flag-tagged HOXC6): binds
- binding (Flag-tagged HOXC8): binds
